Results on 83 variants are retold here after the RNAGym collection of RNA variant scans (doi:10.1093/nar/gkz1192).

The source gives no read counts; variants with many changes may rest on few reads.

B1: CPEB3 Ribozyme (parent)
chain: UAACAGGGGGCCACAGCAGAAGCGUUCACGUCGCAGCCCCUGUCAGAUUCUGGUGAAUCUGCGAAUUCUGCUGUAUAUCUC

In this data set the parent is B1. In words: self-cleavage, relative activity (ratio to wild type); higher = more cleavage; in vitro, sequencing. The procedure, abridged: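 After error-prone PCR and barcoding, CPEB3 ribozyme mutant libraries were transcribed with T7 RNA polymerase at 37°C for 5 hours, then given 15 min with DNase I before an EDTA stop, and they cleaved during both steps. Reverse transcription with template switching preceded Illumina sequencing. Relative activity divides a variant's cleaved/total read fraction by the unmutated ribozyme's. At least 5 reads were required per variant, and three batches were averaged.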
Take G10C A15U C50A U54A A56G: the self-cleavage worked out at 0.18.
With G10A U26A U54A U60C U69C, the self-cleavage worked out at 0.21.
With G10A U26C U80C, the self-cleavage was 0.09.
The value for G10A G33A U72C was 0.06.
The value for G10C A13U A20G A45U U58C A65G was 0.04.
The value for G10C A18G U43A A64G was 0.07; that for G10A U25A A28G C38A U74C U80A was 0.04.
Regarding G10A A56G A65G U80C, the self-cleavage came to 0.17.
The value for G10A U26C U69C A75G U78C was 0.07.
The value for G10A A57G A65G U66A was 0.3; that for G10A U49C G52C U69A was 0.05; that for G10C A15G A18G C29G G33C U41C was 0.06.
The value for G10A U41C U51C was 0.34.
G10A U43C U48C U78C: the self-cleavage was 0.04.
The value for G10A C12U U31C U67C was 0.06; that for G10A U41A U67C U80A was 0.05.
The value for G10A G63A A64G U69C was 0.14; that for G10A A65C U74C was 0.14; that for G10C A15G U54G A56G A65U was 0.07.
The value for G10C A15G U26C U66C U69A was 0.05.
For G10A U25C U54C U58A C62A, the self-cleavage was 0.1.
The value for G10A U25C U31C A57G U60C was 0.08; that for G10A G24A G73A was 0.03.
On to G10A U58C U76C A77U, for which the self-cleavage was found to be 0.04.
The value for G10A U26A A28U U41A U58C U69C was 0.07; that for G10A U49G U72C was 0.06.
The value for G10A U43A U49C U72A was 0.12; that for G10A U48C U54A U58C was 0.06.
Take G10A C11G C50A U80A: the self-cleavage turned out to be 0.41.
The value for G10A G16C U31C C62U U74C U80A was 0.05.
The value for G10A U48C A56G A57U was 0.12.
Turning to G10A U58C A64G, the self-cleavage stood at 0.16.
Take G10A U25C U72C: the self-cleavage was determined as 0.17.
The value for G10C A15G G24C U26C A64G was 0.18.
The value for G10A G16A U25A G33A U58C was 0.05.
The value for G10A U25A U26C G46U U49C was 0.05; that for G10A U41C A64G was 0.37; that for G10A G36A A45G A64G was 0.04.
G10A C11U A20G: the self-cleavage turned out to be 0.05.
G10A A64U U72C: the self-cleavage was found to be 0.2.
The value for G10A C12U A28G A35G C40G C62U was 0.04.
The value for G10A U51C A64U was 0.11; that for G10A U26A U41C A47G G73A was 0.72; that for G10A U26G A28G A47G U48C was 0.24.
The value for G10A G36U U60C was 0.18.
On to G10C A18G A45G U48C, for which the self-cleavage turned out to be 0.22.
On to G10C A13C U31G U49C A56G, for which the self-cleavage was found to be 0.12.
The value for G10A U25A U80C was 0.21; that for G10A U26C A35G U67C was 0.14.
The value for G10A U26C C27A U66C was 0.03; that for G10A U43A U69C was 0.06.
The value for G10A C23U U48C U78C was 0.05.
Take G10A G24A U31G A45U U66C U72G: the self-cleavage amounted to 0.02.
Consider G10C A15G A20G G55A, for which the self-cleavage amounted to 0.25.
The value for G10A C23G G46A was 0.04.
The value for G10A C32U U48C U60G U67C A77G was 0.04; that for G10A G22A U74A was 0.25; that for G10A U41A U51C A65G was 0.16.
The value for G10A U41C G63U U66A was 0.18; that for G10A U43C A47U U74A U78A was 0.05.
For G10A U25C U49C U67A U72G, the self-cleavage was 0.09.
The value for G10A U31C U67C was 0.14; that for G10A U31C U67A was 0.17.
The value for G10C A13U A28G U69A was 0.14; that for G10A C12A C39U U54C U67A was 0.05; that for G10A G30U C40U U51C was 0.05.
In the case of G10A A47G U54C, the self-cleavage was found to be 0.31.
The value for G10A U26C U74A was 0.06; that for G10A U58G U78C was 0.34.
The value for G10A U48C U60C was 0.11; that for G10A U49C A57G U67C U69A U80C was 0.13; that for G10A U54C A64U was 0.24.
The value for G10A U25C C40U U58C U60C was 0; that for G10A U41C U49G U54C U60A U69A C71A was 0.02; that for G10A C14A U60A was 0.18.
For G10A U54C A56G U78A, the self-cleavage stood at 0.06.
The value for G10A U31C C39U G73A A75G U78C was 0.04; that for G10A U49G U72A U78C was 0.04; that for G10A G52A U58C G70U was 0.05.
The value for G10A A65G U69A was 0.04.
Take G10A U54G G55U U76C: the self-cleavage is 0.12.
The value for G10A C14U C44A A77G U80C was 0.05; that for G10A C23A U26C U80C was 0.26.
